The values that follow come from US20260184782A1.

Positions count from the first letter of the chain named.

The assay concerns the target T1, TIGIT (UniProt Q495A1).
T1 sequence (looked up): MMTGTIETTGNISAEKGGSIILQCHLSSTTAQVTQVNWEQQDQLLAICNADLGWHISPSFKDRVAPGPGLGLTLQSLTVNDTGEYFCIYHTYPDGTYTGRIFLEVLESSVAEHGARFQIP
Nature of the assay: ELISA. Background: In an ELISA, binding on a coated surface is turned into a signal by an enzyme label.

B1: TIGIT-29-17 VHH-Fc (Fc fusion)
chain: EVQLVESGGGLVQAGGSLRLSCAASGSTLSIYAMGWFRQAPGKERELVATISSGGGSTYYADSVKGRFTISADNAKNTVYLQMNSLKPEDTAVYYCAAGSVYGRNYWGQGTQVTVSSGGGGS[in this place human IgG1 Fc with C220S (EU numbers)]
In the case of B1, the ELISA stood at 3.2.

B2: TIGIT-30-35 VHH-Fc (Fc fusion)
chain: EVQLVESGGGLVQAGGSLRLSCAASGNIDRLYAMGWFRQAPGKEREGISLITSDDGSTYYADSVKGRFTISADNAKNTVYLQMNSLKPEDTAVYYCASSGPADARNGERWAWGQGTQVTVSSGGGGS[in this place human IgG1 Fc with C220S (EU numbers)]
B2 registered an ELISA of 3.3.

B3: TIGIT-30-42 VHH-Fc (Fc fusion)
chain: EVQLVESGGGLVQAGGSLRLSCAASGITITTEVMGWFRQAPGKEREYVAAIHWNGDSTAYADSVKGRFTISADNAKNTVYLQMNSLKPEDTAVYYCAQVSQWRAWGQGTQVTVSSGGGGS[in this place human IgG1 Fc with C220S (EU numbers)]
Molecule B3 displayed an ELISA of 6.3.

B4: TIGIT-31-43 (VHH-Fc) (Fc fusion)
chain: EVQLVESGGGLVQPGGSLRLSCAASGGTFSAFPMGWFRQAPGKERELVAAISSGGTTYYADSVKGRFTISADNSKNTAYLQMNSLKPEDTAVYYCAAQGGVLSAWDWGQGTLLTVSSGGGGS[in this place human IgG1 Fc with C220S (EU numbers)]
As for B4, the ELISA was determined as 4.9.

B5: TIGIT-29-41 VHH-Fc (Fc fusion)
chain: EVQLVESGGGLVQAGGSLRLSCAASGRTFSTNAMGWFRQAPGKEREWVTAITTSGGNTYYADSVKGRFTISADNAKNTVYLQMNSLKPEDTAVYYCAARDETYGTYDYWGQGTQVTVSSGGGGS[in this place human IgG1 Fc with C220S (EU numbers)]
In turn, B5 yielded an ELISA of 7.7.

B6: TIGIT-29-32 VHH-Fc (Fc fusion)
chain: EVQLVESGGGLVQAGGSLRLSCAASGSTFDSYAMGWFRQAPGKEREGVAAITTSGSSTYYADSVKGRFTISADNAKNTVYLQMNSLKPEDTAVYYCAARGGVRSGSPGTYNYWGQGTQVTVSSGGGGS[in this place human IgG1 Fc with C220S (EU numbers)]
For the molecule B6, the ELISA came to 3.7.

B7: TIGIT-31-49 (VHH-Fc) (Fc fusion)
chain: EVQLVESGGGLVQPGGSLRLSCAASGFDFSVSWMGWFRQAPGKERELVARISSGGELPYYADSVKGRFTISADNSKNTAYLQMNSLKPKHTAVYYCAARPNTRPGSMWGQGTLVTVSSGGGGS[in this place human IgG1 Fc with C220S (EU numbers)]
The molecule B7 displayed an ELISA of 7.3.

B8: TIGIT-31-53 (VHH-Fc) (Fc fusion)
chain: EVQLVESGGGLVQPGGSLRLSCAASGLTISTYNMGWFRQAPGKERELVSAIGWSGASTYYADSVKGRFTISADNSKNTAYLQMNSLKPEDTAVYYCAAFRGRMYDWGQGTLVTVSSGGGGS[in this place human IgG1 Fc with C220S (EU numbers)]
B8 registered an ELISA of 3.2.

B9: TIGIT-31-40 (VHH-Fc) (Fc fusion)
chain: EVQLVESGGGLVQPGGSLRLSCAASGSTLRDYVMGWFRQAPGKERELVSSISRSGTTMFADSVKGRFTIIADNSKNTAYLLMNSLKPQDTAVYYCAAVFSRGLLTCGQGTLVTVSSGGGGS[in this place human IgG1 Fc with C220S (EU numbers)]
Molecule B9 registered an ELISA of 9.4.

B10: TIGIT-30-50 VHH-Fc (Fc fusion)
chain: EVQLVESGGGLVQAGGSLRLSCAASGRSFSNYVMGWFRQAPGKERERVATITSGGLTVYADSVKGRFTISADNAKNTVYLQMNSLKPEDTAVYYCALYRVNWGQGTQVTVSSGGGGS[in this place human IgG1 Fc with C220S (EU numbers)]
The molecule B10 gave an ELISA of 5.6.

B11: TIGIT-31-05 (VHH-Fc) (Fc fusion)
chain: EVQLVESGGGLVQPGGSLRLSCAASGRTFGDYIMGWFRQAPGKEREFVATISRGGGSTYVDSVKGRFTISADNSKNTAYLQMNSLKPEDTAVYYCAAVFSRGPLTWGQGTLVTVSSGGGGS[in this place human IgG1 Fc with C220S (EU numbers)]
In turn, B11 displayed an ELISA of 3.8.

B12: TIGIT-30-48 VHH-Fc (Fc fusion)
chain: EVQLVESGGGLVQAGGSLRLSCAASGFPVNRYSMGWFRQAPGKERELVSAIGWSGASTYYADSVKGRFTISADNAKNTVYLQMNSLKPEDTAVYYCAADFWLARLRVADDYDWGQGTQVTVSSGGGGS[in this place human IgG1 Fc with C220S (EU numbers)]
With B12, the ELISA was 3.6.

B13: TIGIT-29-19 VHH-Fc (Fc fusion)
chain: EVQLVESGGGLVQAGGSLRLSCAASGRTFSSYAMGWFRQAPGKEREFVATISGSFGRTYYADSVKGRFTISADNAKNTVYLQMNSLKPEDTAVYYCAAGAWTIYEYDYWGQGTQVTVSSGGGGS[in this place human IgG1 Fc with C220S (EU numbers)]
B13 registered an ELISA of 9.

B14: TIGIT-31-37 (VHH-Fc) (Fc fusion)
chain: EVQLVESGGGLVQPGGSLRLSCAASGSIFSINSMGWFRQAPGKEREFVAALSWIIGSTYYADSVKGRFTISADNSKNTAYLQMNSLKPEDTAVYYCAVNGRWRSWSSQRDWGQGTLVTVSSGGGGS[in this place human IgG1 Fc with C220S (EU numbers)]
Molecule B14 gave an ELISA of 5.7.

B15: TIGIT-31-04 (VHH-Fc) (Fc fusion)
chain: EVQLVESGGGLVQPGGSLRLSCAASGFPVNRYWMGWFRQAPGKERELVATITSGGSTNYADSVKGRFTISADNSKNTAYLQMNSLKPEDTAVYYCAADVWYGSTWRNWGQGTLVTVSSGGGGS[in this place human IgG1 Fc with C220S (EU numbers)]
With B15, the ELISA was 3.2.

B16: TIGIT-31-12 (VHH-Fc) (Fc fusion)
chain: B15 chain with P28T, V29F, N30S, L47A, T50S, N58Y
For B16, the ELISA worked out at 5.3.

B17: TIGIT-29-43 VHH-Fc (Fc fusion)
chain: EVQLVESGGGLVQAGGSLRLSCAASGRTFDSYAMGWFRQAPGKEREWVSAISWSGSSTYYADSVKGRFTISADNAKNTVYLQMNSLKPEDTAVYYCAARGGYGRYDSWGQGTQVTVTSGGGGS[in this place human IgG1 Fc with C220S (EU numbers)]
As for B17, the ELISA is 4.8.

B18: TIGIT-29-38 VHH-Fc (Fc fusion)
chain: EVQLVESGGGLVQAGGSLRLSCAASGSTFSSYAMGWFRQAPGKEREFVSAISRNGASTSYADSVKGRFTISADNAKNTVYLQMNSLKPEDTAVYYCAAAGTRFDYWGQGTQVTVSSGGGGS[in this place human IgG1 Fc with C220S (EU numbers)]
B18 showed an ELISA of 3.4.
